Assay results published in ChEMBL document CHEMBL4888484, “Replenishing the malaria drug discovery pipeline: Screening and hit evaluation of the MMV Hit Generation Library 1 (HGL1) against asexual blood stage Plasmodium falciparum ,using a nano luciferase reporter read-out” (2022).
Several values for one entry are separate records, joined by “and”; a condition that tells them apart may be missing. Equal entries are not always repeated. Out of some 150,000 compounds screened, about 540 (0.36%) showed an effect of 50% or more. The list shows a part of the results.

Test system: Plasmodium falciparum
Test: Primary screen in NF54 nanoGlo assay, in single point, at 2uM, 72h; a lower Z score goes with more inhibition
Assay type: functional, Erythrocyte
Conditions: timepoint 72 hour

Row | SMILES | % Inhibition | Z score | % Inhibition (2 µM)
1 | CN(CCc1ccccn1)Cc1cc2ccc(F)cc2n(CCN2CCCCC2)c1=O | -18% | 2.13 | 
2 | COC(=O)C[C@@H]1Oc2ccccc2N(CCn2cnnc2C)C1=O | -15% | 1.37 | 
3 | C[C@@H](C(=O)Nc1nc(-c2ccccn2)cs1)n1nc2c(cc1=O)CCC2 | 35% | -1.56 | 
4 | Cc1ccc(-n2nnc(-c3nc(C)c(C(=O)NCc4ccco4)s3)c2C)cc1 | -8% | 1.43 | 
5 | COc1ccc(-n2nc(C)c3c2NC(=O)C[C@@H]3c2cc(Cl)ccc2F)nn1 | 1% | -0.07 | 
6 | COc1ccc(-c2noc3nc(C4CC4)cc(C(=O)Nc4c(C)noc4C)c23)cc1 | 28% | -3.14 | 
7 | CC(C)(C)OC(=O)NC1CC(NCC(O)c2ccco2)C12CCC2 (centres undefined) | 0% | 0.02 | 
8 | Cc1cc(C)nc(NCCC(=O)NCCc2nccs2)n1 | -18% | 2.47 | 
9 | CC(C)CC(=O)N1CCC2(CC1)NC(=O)c1cc(Cl)ccc1N2 | -9% | 1.79 | 
10 | CCS(=O)(=O)N(C)CCCNc1nccc2oc(C)cc12 | -2% | 0.18 | 
11 | CC[C@H]1COC(C)(C)CN1c1cc(C)nc(C)n1 | 6% | -0.71 | 
12 | CO[C@@]12CC[C@@H](OCCO)C[C@@H]1N(Cc1cc(C)ccc1F)CC2 | 3% | -0.35 | 
13 | Cc1noc(C(=O)Nc2ccccc2C(C)C)n1 | -4% | 0.39 | 
14 | CC(C)[C@H](Nc1ccc2nccnc2n1)c1nnc2n1CCC2 | 32% | -0.29 | 
15 | CCOC[C@H](C)OC(=O)c1cnc(C)nc1C | 2% | -0.29 | 
16 | CS(=O)(=O)Nc1cccc2c1CCN(CC1(C(F)(F)F)CC1)C2 | -7% | 0.86 | 
17 | Nc1ncnc(NCc2cccc(Cn3ccnc3)c2)c1Cl | 2% | -0.29 | 
18 | CCC[C@](C)(O)C(=O)Nc1cccc(C)c1O | 7% | -1.31 | 
19 | CN(C)C(=O)c1ccc(CNC(=O)N(C)Cc2ncon2)o1 | 19% | -2.39 | 
20 | O=C(NCCOc1ccccc1)NCCOc1ccccc1 | 1% | -0.22 | 
21 | CCN1CCN(C(=O)Nc2cc(C)ccc2OC)[C@H]2CS(=O)(=O)C[C@H]21 | 3% | -0.39 | 
22 | Cc1ccc2[nH]c3c(=O)n(CCC(=O)N4CCN(Cc5ccc6c(c5)OCO6)CC4)cnc3c2c1 | 3% | -0.57 | 

Row | SMILES | % Inhibition | Z score | % Inhibition (2 µM)
23 | CC(NC(=O)NC(C)c1nc(C2CCCCC2)no1)c1cnn(C)c1 (centres undefined) | 22% | -2.61 | 
24 | COc1cccc(C2=CCN(c3ccccc3O)C(=O)N2)c1 | -8% | 1.11 | 
25 | COc1ccc(CN2CCN(c3nc(-c4cccs4)c4c(N)n(-c5cccc(C)c5)nc4n3)CC2)cc1 | -5% | 0.96 | 
26 | O=C(c1ccc(=O)[nH]c1)N1CC[C@H](c2ncon2)C1 | -12% | 2.1 | 
27 | Cc1ccccc1-c1cnc(NC(=O)N2CCCN(C)CC2)s1 | -7% | 0.93 | 
28 | CCC(NC(C)c1ccc(Cl)s1)c1ccncc1 (centres undefined) | -2% | 0.23 | 
29 | O=C(NCc1ccc(F)cc1)[C@H]1CCN(c2cn[nH]c(=O)c2)C1 | -8% | 1.47 | 
30 | CN1CCO[C@@H](CNS(=O)(=O)c2cccnc2)C1 | 5% | -0.73 | 
31 | CCc1cc(C(=O)Nc2n[nH]c(Cc3cccc(F)c3)n2)[nH]n1 | -9% | 1.07 | 
32 | CN1CCCC[C@@H]1CCn1ccc2ccccc2c1=O | -24% | 2.4 | 
33 | CCc1onc(C)c1CS(=O)(=O)Cc1ccsc1Cl | 7% | -1.08 | 
34 | Cc1cnc(-c2cccc(NC(=O)NCCN(C)C)c2)o1 | -2% | 0.29 | 
35 | C[C@@H](c1ccccc1)n1c(NC(=O)c2ccco2)c(S(=O)(=O)c2ccccc2)c2nc3ccccc3nc21 | 2% | -0.19 | 
36 | CC(C)Oc1ccccc1CCNC(=O)[C@@H]1CC[C@H](C(=O)O)C1 | -1% | 0.1 | 
37 | O=C(c1ccn(C(F)F)n1)N1CCC[C@H](CN2CCCCC2)C1 | -15% | 2.27 | 
38 | O=C(Nc1cc(C(F)(F)F)c[nH]c1=O)C(=O)NC(C1CC1)C1CC1 | -4% | 0.51 | 
39 | COc1ccc(-c2nc(NCCN3CCCCC3)nc3nn(Cc4ccccc4)c(N)c23)cc1OC | 2% | -0.41 | 
40 | CN(C(=O)c1ccncc1Cl)c1ccc2c(c1)CCO2 | -10% | 0.94 | 
41 | Cc1ccnc(C)c1NC(=O)[C@H]1CCN(CC(F)(F)F)C1 | -2% | 0.32 | 
42 | C=CCN(CC#Cc1ccccc1)C(=O)c1cc2n(n1)CCCN(C)C2 | -9% | 1.65 | 
43 | O=C1CN(C(=O)Cn2cccn2)c2cc(Br)ccc2N1 | -3% | 0.45 | 
44 | COC[C@@H]1CN(c2ccncn2)C[C@H]1C(=O)NCC(F)(F)F | -11% | 1.64 | 

Row | SMILES | % Inhibition | Z score | % Inhibition (2 µM)
45 | O=c1[nH]c(=O)n(Cc2cccnc2)c2c1C(C(F)(F)F)(C(F)(F)F)NC(c1ccccc1)=N2 |  |  | 1% and -8%
46 | COc1cccc(CO[C@H]2CN(CC(C)C)C(=O)CN(C(=O)c3snnc3C)C2)c1 | -9% | 1.24 | 
47 | CC(C)[C@@H](CO)NCc1noc(C2CC2)n1 | -5% | 0.67 | 
48 | O=C(c1cccc2[nH]ccc12)N1CCC2(CC1)NC(c1ccc(Cl)cc1)=NO2 | -21% | 1.92 | 
49 | Cc1nc(CC(=O)N[C@H]2CC=CC[C@@H]2C(N)=O)cs1 | -6% | 0.67 | 
50 | C#CCN1CCC[C@H]1C(=O)NCCc1ccccn1 | 7% | -0.78 | 
51 | OC(CNC1CCc2c(Br)cccc21)c1ccncc1 (centres undefined) | -13% | 1.3 | 
52 | O=C(Cc1n[nH]c(=O)c2ccccc12)NCC[C@H]1CCCO1 | -20% | 2.68 | 
53 | COCC1(n2cnc3nccnc3c2=O)CCCC1 | -11% | 2.07 | 
54 | c1cncc(-c2nnc3n2C2(CCCCC2)Cc2ccccc2-3)c1 | -5% | 0.64 | 
55 | Cn1cc([C@@H]2[C@@H](CNC(=O)Cn3cc(C4CC4)cn3)CC(=O)N2C(C)(C)C)cn1 | 0% | 0.07 | 
56 | CCC1CN(C(=O)CCc2c(C)nn(C)c2C)CC1N1CCOCC1 (centres undefined) | -11% | 0.98 | 
57 | CCc1nnc(-c2[nH]c(C)c(S(=O)(=O)Nc3ccc(F)c(C)c3)c2C)o1 | 2% | -0.24 | 
58 | CC(C)C(=O)Nc1ccc2c(c1)C(=O)Nc1cccnc1O2 | -9% | 1 | 
59 | CCc1cc(NC(=O)c2ccc(-c3ccccc3F)o2)n(C)n1 | -10% | 1 | 
60 | O=C(NCc1cccc(F)c1)c1ccc(CN2C(=O)CCn3nc(-c4ccc(Cl)cc4)cc32)cc1 | 5% | -0.63 | 
61 | CC1(CO)CN(Cc2ccc(OC(F)F)c(Cl)c2)C1 | -4% | 0.58 | 
62 | Cc1nccnc1N(C)Cc1ccc2c(c1)OCO2 | -2% | 0.42 | 
63 | CCCN(CC)Cc1ccccc1-c1nc2c(c(=O)[nH]1)CCCCC2 | 4% | -0.66 | 
64 | CCN1CCN(C(=O)c2cccc(NCc3cccnc3)c2C)[C@@H](C)C1=O | -7% | 1.21 | 
65 | NC(=O)CN1CCC(N[C@@H](CCc2ccccc2)C(F)F)CC1 | 5% | -0.59 | 
66 | CN(C)C(=O)CN1C[C@H](Nc2cccc(C#N)n2)[C@@H](C2CC2)C1 | 0% | -0.08 | 

Row | SMILES | % Inhibition | Z score | % Inhibition (2 µM)
67 | N#Cc1cccc(CN2CCC[C@@](CO)(CC3CC3)C2)c1 | 5% | -0.82 | 
68 | O=C(Nc1ccc(C(F)(F)F)cc1)C1CCN(C(=O)c2ccc(-c3ccccc3)cc2)CC1 | -17% | 2.19 | 
69 | CCOc1ccnc(-c2ccc(N(C)C)nc2)n1 | 2% | -0.16 | 
70 | NC(=O)C1C2CCCC2CN1c1ncnc2c1ncn2CC1(CO)COC1 (centres undefined) | 2% | -0.27 | 
71 | COc1ccccc1CCC(=O)N1C[C@H]2CCN(C)[C@H]2C1 | -11% | 1.55 | 
72 | Cc1c(CN[C@@H](C)CCc2ccccc2)c(C(=O)O)c(C)n1Cc1cccc(Cl)c1 | -4% | 0.78 | 
73 | CCN1CCCCc2cc(C(=O)NCC(N)=O)sc21 | 28% | -3.78 | 
74 | Cc1cc(Cl)cc2cc(-c3noc(-c4cn(C[C@H]5CCOC5)nn4)n3)oc12 | -17% | 2.12 | 
75 | C[C@H]1CCOCCN1C(=O)c1ocnc1-c1ccccc1 | 3% | -0.54 | 
76 | CC(C)[C@@H](C(=O)NCCCN(C)C)S(=O)(=O)C1CCCCC1 | -15% | 2.81 | 
77 | CCCN1CCN(CCC(=O)Nc2cccnc2)CC1=O | -12% | 1.98 | 
78 | Cn1cccc1C(=O)N1CCCC[C@H]1c1nnc(-c2cnccn2)[nH]1 | 1% | -0.1 | 
79 | C[C@@H](C#N)N1CCC(Cn2cc(Br)cn2)CC1 | -8% | 1.12 | 
80 | CCn1c(=O)c(-c2ccc3ccccc3n2)cc2cc(Cl)ccc21 | 13% | -1.78 | 
81 | Cc1cc(C(=O)NCc2csc(N)n2)cnc1C | -21% | 2.28 | 
82 | Cc1oc2ccc(OCc3ccccc3)cc2c1C(=O)N1[C@@H]2CC[C@H]1C[C@@H](O)C2 | -4% | 0.76 | 
83 | COCCNc1cc(-c2noc([C@@H]3CCCN3C3CCN(C)CC3)n2)ccn1 | 31% | -3.52 | 
84 | COc1ccc(-c2cc(C)ccc2N2CCOC2=O)cc1F | -5% | 0.92 | 
85 | CCN1CC[C@@]2(CCC1=O)CN(C(=O)Nc1ccc(F)c(F)c1)CCN2C | -4% | 0.72 | 
